Source: article PMC1762320, “Separation of Anti-Proliferation and Anti-Apoptotic Functions of Retinoblastoma Protein through Targeted Mutations of Its A/B Domain” (PLoS ONE, 2006)
Positions count from the first letter of the chain named. No constants are given. Whether binding was seen depends on the method and setting. Binding seen in cells or lysates may run through a third protein. Some results given as binding are weak or reduced against the parent protein; the word gives no strength. For part of these data: Where a sequence is shown, tags or fusion partners need not be part of it.

Sequences of proteins named here, by UniProt entry; tags and fusion partners are left off. A change or cut given only in a name is not applied to a line headed by its entry.
UniProt P03129: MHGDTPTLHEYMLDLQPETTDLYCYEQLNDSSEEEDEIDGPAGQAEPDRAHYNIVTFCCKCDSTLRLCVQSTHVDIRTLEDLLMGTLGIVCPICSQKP
UniProt O00716: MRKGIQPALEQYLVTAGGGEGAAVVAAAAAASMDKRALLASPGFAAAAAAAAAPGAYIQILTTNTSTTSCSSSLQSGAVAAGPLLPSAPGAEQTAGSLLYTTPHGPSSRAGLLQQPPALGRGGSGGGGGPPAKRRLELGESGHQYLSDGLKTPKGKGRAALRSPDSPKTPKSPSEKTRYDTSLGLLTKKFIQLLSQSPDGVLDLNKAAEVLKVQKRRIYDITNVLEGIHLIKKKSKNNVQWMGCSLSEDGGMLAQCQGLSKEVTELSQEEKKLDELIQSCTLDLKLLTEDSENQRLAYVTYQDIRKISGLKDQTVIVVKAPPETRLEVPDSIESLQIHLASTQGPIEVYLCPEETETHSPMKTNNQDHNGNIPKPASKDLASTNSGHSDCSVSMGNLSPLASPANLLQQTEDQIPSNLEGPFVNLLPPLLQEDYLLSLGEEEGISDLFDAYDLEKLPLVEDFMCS

T1: GST-RB (amino acids 395 through 928) (human) (UniProt P06400)
T1 sequence: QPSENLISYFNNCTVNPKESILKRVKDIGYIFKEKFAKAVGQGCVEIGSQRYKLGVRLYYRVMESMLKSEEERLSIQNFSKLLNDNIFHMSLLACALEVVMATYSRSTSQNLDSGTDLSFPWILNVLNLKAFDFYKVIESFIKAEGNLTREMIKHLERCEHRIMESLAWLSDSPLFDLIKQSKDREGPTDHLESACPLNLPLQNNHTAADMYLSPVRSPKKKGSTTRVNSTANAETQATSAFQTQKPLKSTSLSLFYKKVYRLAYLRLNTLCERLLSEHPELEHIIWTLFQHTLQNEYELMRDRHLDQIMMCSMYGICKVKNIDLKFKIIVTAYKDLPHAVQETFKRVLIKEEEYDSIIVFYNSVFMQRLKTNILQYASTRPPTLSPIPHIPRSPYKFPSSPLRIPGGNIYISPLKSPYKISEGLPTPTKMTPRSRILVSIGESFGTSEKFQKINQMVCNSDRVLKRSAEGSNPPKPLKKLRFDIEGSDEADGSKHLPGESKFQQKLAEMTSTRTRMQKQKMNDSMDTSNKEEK

T2: GST-RB-K (amino acids 395 through 928, K530A) (human) (UniProt P06400)
T2 sequence: T1 sequence with K136A

B1: retinoblastoma protein RB (wild type, expressed in cells) (natural protein, human, UniProt P06400 1-928, looked up)
chain: MPPKTPRKTAATAAAAAAEPPAPPPPPPPEEDPEQDSGPEDLPLVRLEFEETEEPDFTALCQKLKIPDHVRERAWLTWEKVSSVDGVLGGYIQKKKELWGICIFIAAVDLDEMSFTFTELQKNIEISVHKFFNLLKEIDTSTKVDNAMSRLLKKYDVLFALFSKLERTCELIYLTQPSSSISTEINSALVLKVSWITFLLAKGEVLQMEDDLVISFQLMLCVLDYFIKLSPPMLLKEPYKTAVIPINGSPRTPRRGQNRSARIAKQLENDTRIIEVLCKEHECNIDEVKNVYFKNFIPFMNSLGLVTSNGLPEVENLSKRYEEIYLKNKDLDARLFLDHDKTLQTDSIDSFETQRTPRKSNLDEEVNVIPPHTPVRTVMNTIQQLMMILNSASDQPSENLISYFNNCTVNPKESILKRVKDIGYIFKEKFAKAVGQGCVEIGSQRYKLGVRLYYRVMESMLKSEEERLSIQNFSKLLNDNIFHMSLLACALEVVMATYSRSTSQNLDSGTDLSFPWILNVLNLKAFDFYKVIESFIKAEGNLTREMIKHLERCEHRIMESLAWLSDSPLFDLIKQSKDREGPTDHLESACPLNLPLQNNHTAADMYLSPVRSPKKKGSTTRVNSTANAETQATSAFQTQKPLKSTSLSLFYKKVYRLAYLRLNTLCERLLSEHPELEHIIWTLFQHTLQNEYELMRDRHLDQIMMCSMYGICKVKNIDLKFKIIVTAYKDLPHAVQETFKRVLIKEEEYDSIIVFYNSVFMQRLKTNILQYASTRPPTLSPIPHIPRSPYKFPSSPLRIPGGNIYISPLKSPYKISEGLPTPTKMTPRSRILVSIGESFGTSEKFQKINQMVCNSDRVLKRSAEGSNPPKPLKKLRFDIEGSDEADGSKHLPGESKFQQKLAEMTSTRTRMQKQKMNDSMDTSNKEEK

Key:
[1] = target: GST-E7 (human papilloma virus-16, full-length) (human papilloma virus-16) (UniProt P03129); experiment: pull-down; GST-E2F1 or GST-E7 immobilised on glutathione-Sepharose, incubated with whole cell lysates of adenovirus-infected MDA-MB468 cells; 25 mM Tris-HCl pH 7.5, 250 mM KCl, 0.1% Triton X-100, 0.5 mM EDTA, 0.1 mM DTT; anti-RB blot; only the target purified
[2] = target: T1, GST-RB (amino acids 395 through 928) (human); experiment: pull-down; by the legend: GST-RB proteins immobilised on glutathione Sepharose, incubated with lysates of 293T cells expressing HA-E2F3 and DP1; anti-HA blot (the text calls it a co-immunoprecipitation); only the target purified
[3] = target: T2, GST-RB-K (amino acids 395 through 928, K530A) (human); experiment: as above

Molecule	binding [1]	binding [2]	binding [3]
RB-N757F (expressed in cells) (from UniProt P06400 1-928)	no binding		
RB-K530A (expressed in cells) (from UniProt P06400 1-928)	binds		
HA-tagged E2F3 co-expressed with DP1 (E2F3/DP1) (from UniProt O00716 1-465; Q14186 1-410) (complex)		binds	binds weakly
RB-K530A/N757F (expressed in cells) (from UniProt P06400 1-928)	no binding		
B1	binds		
